The list shows a part of the results. The list includes weakly bound sequences.

For the assay, the target named is T1, MBP-FoxP3dN (UniProt Q99JB6).
T1 sequence: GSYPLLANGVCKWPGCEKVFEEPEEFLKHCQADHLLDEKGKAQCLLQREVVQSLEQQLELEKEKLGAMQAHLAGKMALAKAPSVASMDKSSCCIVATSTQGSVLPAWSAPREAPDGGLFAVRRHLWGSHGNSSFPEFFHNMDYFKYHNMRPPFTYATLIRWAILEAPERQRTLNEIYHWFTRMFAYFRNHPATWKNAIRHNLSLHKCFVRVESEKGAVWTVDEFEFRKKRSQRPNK
Put plainly: PD-seq (MBP pull-down with sequencing). Conditions: 20 mM Tris-HCl pH 7.5, 100 mM NaCl, 1.5 mM MgCl2, 0.4 uM protein, 0.1 uM dsDNA library, 30 min, room temperature, amylose pull-down; high values mean tight binding; double strand, one strand shown.
As for “GATGATTGTTCTCCCAGCTGATGAATTTATGTACTCGAGTAAACAAATTTTCCTAATCTTTCTGTTCAAGCGCCATCTAC”, the binding signal (RPM ratio (pull-down/input)) turned out to be 5.18. With “GATGATTGTTCTCCCAGCTGATGAATTTGGTTAATCGAGTAAACAAATTTTCCTAATCTTTCTGTTCAAGCGCCATCTAC”, the binding signal (RPM ratio (pull-down/input)) was 0.489. As to “GATGATTGTTCTCCCAGCTGATGAATTACGCGAATCGAGTAAACAAATTTTCCTAATCTTTCTGTTCAAGCGCCATCTAC”, the binding signal (RPM ratio (pull-down/input)) came out at 0.382.

Turning to “GATGATTGTTCTCCCAGCTGATGAATTCCTACCTTCGAGTAAACAAATTTTCCTAATCTTTCTGTTCAAGCGCCATCTAC”, the binding signal (RPM ratio (pull-down/input)) stood at 0.26. In the case of “GATGATTGTTCTCCCAGCTGATGAATTTGGTTACTCGAGTAAACAAATTTTCCTAATCTTTCTGTTCAAGCGCCATCTAC” it was 3.22. Take “GATGATTGTTCTCCCAGCTGATGAATTACTGACTTCGAGTAAACAAATTTTCCTAATCTTTCTGTTCAAGCGCCATCTAC”: the binding signal (RPM ratio (pull-down/input)) came out at 0.421. Take “GATGATTGTTCTCCCAGCTGATGAATTCGCACGCTCGAGTAAACAAATTTTCCTAATCTTTCTGTTCAAGCGCCATCTAC”: the binding signal (RPM ratio (pull-down/input)) is 0.507. In the case of “GATGATTGTTCTCCCAGCTGATGAATTAGTACGTTCGAGTAAACAAATTTTCCTAATCTTTCTGTTCAAGCGCCATCTAC” it was 0.728. In the case of “GATGATTGTTCTCCCAGCTGATGAATTTAGGTGATCGAGTAAACAAATTTTCCTAATCTTTCTGTTCAAGCGCCATCTAC” it was 0.601; in that of “GATGATTGTTCTCCCAGCTGATGAATTATAGGCCTCGAGTAAACAAATTTTCCTAATCTTTCTGTTCAAGCGCCATCTAC”, 0.536; in that of “GATGATTGTTCTCCCAGCTGATGAATTCGCAGGCTCGAGTAAACAAATTTTCCTAATCTTTCTGTTCAAGCGCCATCTAC”, 0.326. Under “GATGATTGTTCTCCCAGCTGATGAATTTGAACTCTCGAGTAAACAAATTTTCCTAATCTTTCTGTTCAAGCGCCATCTAC” stands 0.423; under “GATGATTGTTCTCCCAGCTGATGAATTGCCTTCCTCGAGTAAACAAATTTTCCTAATCTTTCTGTTCAAGCGCCATCTAC”, 0.773. As to “GATGATTGTTCTCCCAGCTGATGAATTGCGCGAATCGAGTAAACAAATTTTCCTAATCTTTCTGTTCAAGCGCCATCTAC”, the binding signal (RPM ratio (pull-down/input)) amounted to 0.672. As to “GATGATTGTTCTCCCAGCTGATGAATTACTCGATTCGAGTAAACAAATTTTCCTAATCTTTCTGTTCAAGCGCCATCTAC”, the binding signal (RPM ratio (pull-down/input)) is 0.266.

“GATGATTGTTCTCCCAGCTGATGAATTATACGGATCGAGTAAACAAATTTTCCTAATCTTTCTGTTCAAGCGCCATCTAC”: the binding signal (RPM ratio (pull-down/input)) was 0.294. Consider “GATGATTGTTCTCCCAGCTGATGAATTTATTTGATCGAGTAAACAAATTTTCCTAATCTTTCTGTTCAAGCGCCATCTAC”, for which the binding signal (RPM ratio (pull-down/input)) stood at 2.62. Take “GATGATTGTTCTCCCAGCTGATGAATTAGTACACTCGAGTAAACAAATTTTCCTAATCTTTCTGTTCAAGCGCCATCTAC”: the binding signal (RPM ratio (pull-down/input)) is 0.992.

On to “GATGATTGTTCTCCCAGCTGATGAATTCTAGATCTCGAGTAAACAAATTTTCCTAATCTTTCTGTTCAAGCGCCATCTAC”, for which the binding signal (RPM ratio (pull-down/input)) worked out at 0.279. Under “GATGATTGTTCTCCCAGCTGATGAATTAATCATATCGAGTAAACAAATTTTCCTAATCTTTCTGTTCAAGCGCCATCTAC” stands 0.623; under “GATGATTGTTCTCCCAGCTGATGAATTGGAGGCGTCGAGTAAACAAATTTTCCTAATCTTTCTGTTCAAGCGCCATCTAC”, 0.855.

In the case of “GATGATTGTTCTCCCAGCTGATGAATTTTTAGCTTCGAGTAAACAAATTTTCCTAATCTTTCTGTTCAAGCGCCATCTAC”, the binding signal (RPM ratio (pull-down/input)) was determined as 0.264. In the case of “GATGATTGTTCTCCCAGCTGATGAATTAACCGGTTCGAGTAAACAAATTTTCCTAATCTTTCTGTTCAAGCGCCATCTAC” it was 0.239; in that of “GATGATTGTTCTCCCAGCTGATGAATTCCTTAAATCGAGTAAACAAATTTTCCTAATCTTTCTGTTCAAGCGCCATCTAC”, 0.203.

For the sequence “GATGATTGTTCTCCCAGCTGATGAATTGTAGGCCTCGAGTAAACAAATTTTCCTAATCTTTCTGTTCAAGCGCCATCTAC”, the binding signal (RPM ratio (pull-down/input)) came out at 0.674. As to “GATGATTGTTCTCCCAGCTGATGAATTAAGTCTTTCGAGTAAACAAATTTTCCTAATCTTTCTGTTCAAGCGCCATCTAC”, the binding signal (RPM ratio (pull-down/input)) amounted to 0.618. Turning to “GATGATTGTTCTCCCAGCTGATGAATTTGACTTGTCGAGTAAACAAATTTTCCTAATCTTTCTGTTCAAGCGCCATCTAC”, the binding signal (RPM ratio (pull-down/input)) turned out to be 0.698.

As to “GATGATTGTTCTCCCAGCTGATGAATTGCCTTCGTCGAGTAAACAAATTTTCCTAATCTTTCTGTTCAAGCGCCATCTAC”, the binding signal (RPM ratio (pull-down/input)) is 0.804. Under “GATGATTGTTCTCCCAGCTGATGAATTCCCGAGCTCGAGTAAACAAATTTTCCTAATCTTTCTGTTCAAGCGCCATCTAC” stands 0.177. For the sequence “GATGATTGTTCTCCCAGCTGATGAATTATATCTTTCGAGTAAACAAATTTTCCTAATCTTTCTGTTCAAGCGCCATCTAC”, the binding signal (RPM ratio (pull-down/input)) was 0.541. In the case of “GATGATTGTTCTCCCAGCTGATGAATTTGGGGAGTCGAGTAAACAAATTTTCCTAATCTTTCTGTTCAAGCGCCATCTAC” it was 0.404; in that of “GATGATTGTTCTCCCAGCTGATGAATTACCTCCGTCGAGTAAACAAATTTTCCTAATCTTTCTGTTCAAGCGCCATCTAC”, 0.243. For the sequence “GATGATTGTTCTCCCAGCTGATGAATTTACTTGCTCGAGTAAACAAATTTTCCTAATCTTTCTGTTCAAGCGCCATCTAC”, the binding signal (RPM ratio (pull-down/input)) came out at 1.61. Under “GATGATTGTTCTCCCAGCTGATGAATTTTCGGCCTCGAGTAAACAAATTTTCCTAATCTTTCTGTTCAAGCGCCATCTAC” stands 0.395; under “GATGATTGTTCTCCCAGCTGATGAATTTAGATGATCGAGTAAACAAATTTTCCTAATCTTTCTGTTCAAGCGCCATCTAC”, 0.728. In the case of “GATGATTGTTCTCCCAGCTGATGAATTAGGAGTTTCGAGTAAACAAATTTTCCTAATCTTTCTGTTCAAGCGCCATCTAC” it was 0.95; in that of “GATGATTGTTCTCCCAGCTGATGAATTTGTCCATTCGAGTAAACAAATTTTCCTAATCTTTCTGTTCAAGCGCCATCTAC”, 2.42.

On to “GATGATTGTTCTCCCAGCTGATGAATTTTTCGCGTCGAGTAAACAAATTTTCCTAATCTTTCTGTTCAAGCGCCATCTAC”, for which the binding signal (RPM ratio (pull-down/input)) came to 0.414. As to “GATGATTGTTCTCCCAGCTGATGAATTATACGTATCGAGTAAACAAATTTTCCTAATCTTTCTGTTCAAGCGCCATCTAC”, the binding signal (RPM ratio (pull-down/input)) came out at 0.75. In the case of “GATGATTGTTCTCCCAGCTGATGAATTGACGTTCTCGAGTAAACAAATTTTCCTAATCTTTCTGTTCAAGCGCCATCTAC” it was 0.613.

For the origin of these results see article PMC12820563.
